{"source": "the supplement of paper PMC8728848", "binders": {"B1": {"name": "Cohesin-marm-DC-ASGPR-CRD (protein)", "chain": "LDITSHHHHHHDDLDAVRIKVDTVNAKPGDTVRIPVRFSGIPSKGIANCDFVYSYDPNVLEIIEIEPGDIIVDPNPDKSFDTAVYPDRKIIVFLFAEDSGTGAYAITKDGVFATIVAKVKEGAPNGLSVIKFVEVGGFANNDLVEQKTQFFDGGVNVGDTTEPATPTTPVTTPTTTDDLDAASCPINWVEHQGSCYWFSRSGKTWPEAERYCQLENTHLVVINSREEQNFVQAHLGSAYTWMGLSDPEGVWKWVDGTDYSSGFQNWKPGQPDDWQGHGLGGGEDCAHFHPDGRWNDDVCQRSYHWVCEAGLTQASQDSH"}}, "test_in_all_cases": "glycan array binding signal (z-score within array); higher = stronger binding", "details_in_all_cases": "glycan notation: IUPAC condensed, linker removed", "key": {"[1]": {"molecular_target": "Fuc(a1-2)Gal(b1-4)[Fuc(a1-3)]GlcNAc(b1-2)Man(a1-3)[Fuc(a1-2)Gal(b1-4)[Fuc(a1-3)]GlcNAc(b1-2)Man(a1-6)]Man(b1-4)GlcNAc(b1-4)[Fuc(a1-6)]GlcNAc", "in_short": "(§1)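 The binding signal is a Z-score computed within each array and averaged over linkers. Arrays of the same protein sequence at different concentrations or buffers were also averaged together. Data originate from 3228 arrays in the Consortium for Functional Glycomics database, kept only where the protein sequence was available.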"}, "[2]": {"molecular_target": "Fuc(a1-2)Gal(b1-4)[Fuc(a1-3)]GlcNAc(b1-2)[Fuc(a1-2)Gal(b1-4)[Fuc(a1-3)]GlcNAc(b1-4)]Man(a1-3)[Fuc(a1-2)Gal(b1-4)[Fuc(a1-3)]GlcNAc(b1-2)Man(a1-6)]Man(b1-4)GlcNAc(b1-4)GlcNAc", "in_short": "as §1"}, "[3]": {"molecular_target": "Fuc(a1-2)Gal(b1-4)[Fuc(a1-3)]GlcNAc(b1-3)Gal(b1-4)[Fuc(a1-3)]GlcNAc", "in_short": "as §1"}, "[4]": {"molecular_target": "Fuc(a1-2)Gal(b1-4)[Fuc(a1-3)]GlcNAc(b1-3)Gal(b1-4)[Fuc(a1-3)]GlcNAc(b1-3)Gal(b1-4)[Fuc(a1-3)]GlcNAc", "in_short": "as §1"}, "[5]": {"molecular_target": "Fuc(a1-2)Gal(b1-4)[Fuc(a1-3)]GlcNAc(b1-3)GalNAc", "in_short": "as §1"}, "[6]": {"molecular_target": "Fuc(a1-2)Gal(b1-4)[Fuc(a1-3)]GlcNAc(b1-3)[Neu5Ac(a2-6)Gal(b1-4)GlcNAc(b1-6)]Gal(b1-4)Glc", "in_short": "as §1"}, "[7]": {"molecular_target": "Fuc(a1-2)Gal3S(b1-4)GlcNAc", "in_short": "as §1"}, "[8]": {"molecular_target": "Fuc(a1-2)Gal6S(b1-3)GlcNAc", "in_short": "as §1"}, "[9]": {"molecular_target": "Fuc(a1-2)Gal6S(b1-3)GlcNAc6S", "in_short": "as §1"}, "[10]": {"molecular_target": "Fuc(a1-2)Gal6S(b1-4)Glc", "in_short": "as §1"}, "[11]": {"molecular_target": "Fuc(a1-2)Gal6S(b1-4)Glc6S", "in_short": "as §1"}, "[12]": {"molecular_target": "Fuc(a1-2)[Gal(a1-3)]Gal", "in_short": "as §1"}, "[13]": {"molecular_target": "Fuc(a1-2)[Gal(a1-3)]Gal(b1-3)GalNAc", "in_short": "as §1"}, "[14]": {"molecular_target": "Fuc(a1-2)[Gal(a1-3)]Gal(b1-3)GalNAc(b1-3)Gal(a1-4)Gal(b1-4)Glc", "in_short": "as §1"}, "[15]": {"molecular_target": "Fuc(a1-2)[Gal(a1-3)]Gal(b1-3)GlcNAc", "in_short": "as §1"}, "[16]": {"molecular_target": "Fuc(a1-2)[Gal(a1-3)]Gal(b1-3)GlcNAc(b1-2)Man(a1-3)[Fuc(a1-2)[Gal(a1-3)]Gal(b1-3)GlcNAc(b1-2)Man(a1-6)]Man(b1-4)GlcNAc(b1-4)GlcNAc", "in_short": "as §1"}, "[17]": {"molecular_target": "Fuc(a1-2)[Gal(a1-3)]Gal(b1-3)GlcNAc(b1-2)Man(a1-3)[Fuc(a1-2)[Gal(a1-3)]Gal(b1-3)GlcNAc(b1-2)Man(a1-6)]Man(b1-4)GlcNAc(b1-4)[Fuc(a1-6)]GlcNAc", "in_short": "as §1"}, "[18]": {"molecular_target": "Fuc(a1-2)[Gal(a1-3)]Gal(b1-3)GlcNAc(b1-3)GalNAc", "in_short": "as §1"}, "[19]": {"molecular_target": "Fuc(a1-2)[Gal(a1-3)]Gal(b1-3)GlcNAc(b1-6)GalNAc", "in_short": "as §1"}, "[20]": {"molecular_target": "Fuc(a1-2)[Gal(a1-3)]Gal(b1-4)Glc", "in_short": "as §1"}, "[21]": {"molecular_target": "Fuc(a1-2)[Gal(a1-3)]Gal(b1-4)GlcNAc", "in_short": "as §1"}, "[22]": {"molecular_target": "Fuc(a1-2)[Gal(a1-3)]Gal(b1-4)GlcNAc(b1-2)Man", "in_short": "as §1"}, "[23]": {"molecular_target": "Fuc(a1-2)[Gal(a1-3)]Gal(b1-4)GlcNAc(b1-2)Man(a1-3)[Fuc(a1-2)[Gal(a1-3)]Gal(b1-4)GlcNAc(b1-2)Man(a1-6)]Man(b1-4)GlcNAc(b1-4)GlcNAc", "in_short": "as §1"}, "[24]": {"molecular_target": "Fuc(a1-2)[Gal(a1-3)]Gal(b1-4)GlcNAc(b1-2)Man(a1-3)[Fuc(a1-2)[Gal(a1-3)]Gal(b1-4)GlcNAc(b1-2)Man(a1-6)]Man(b1-4)GlcNAc(b1-4)[Fuc(a1-6)]GlcNAc", "in_short": "as §1"}, "[25]": {"molecular_target": "Fuc(a1-2)[Gal(a1-3)]Gal(b1-4)GlcNAc(b1-3)GalNAc", "in_short": "as §1"}, "[26]": {"molecular_target": "Fuc(a1-2)[Gal(a1-3)]Gal(b1-4)GlcNAc(b1-3)[Fuc(a1-2)[Gal(a1-3)]Gal(b1-4)GlcNAc(b1-6)]GalNAc", "in_short": "as §1"}, "[27]": {"molecular_target": "Fuc(a1-2)[Gal(a1-3)]Gal(b1-4)GlcNAc(b1-6)GalNAc", "in_short": "as §1"}, "[28]": {"molecular_target": "Fuc(a1-2)[Gal(a1-3)]Gal(b1-4)[Fuc(a1-3)]Glc", "in_short": "as §1"}, "[29]": {"molecular_target": "Fuc(a1-2)[Gal(a1-3)]Gal(b1-4)[Fuc(a1-3)]GlcNAc", "in_short": "as §1"}, "[30]": {"molecular_target": "Fuc(a1-2)[Gal(a1-3)]Gal(b1-4)[Fuc(a1-3)]GlcNAc(b1-3)GalNAc", "in_short": "as §1"}, "[31]": {"molecular_target": "Fuc(a1-2)[Gal(a1-4)]Gal(b1-4)GlcNAc", "in_short": "as §1"}, "[32]": {"molecular_target": "Fuc(a1-2)[GalNAc(a1-3)]Gal", "in_short": "as §1"}, "[33]": {"molecular_target": "Fuc(a1-2)[GalNAc(a1-3)]Gal(b1-3)GalNAc(a1-3)[Fuc(a1-2)]Gal(b1-4)GlcNAc", "in_short": "as §1"}, "[34]": {"molecular_target": "Fuc(a1-2)[GalNAc(a1-3)]Gal(b1-3)GalNAc(b1-3)Gal(a1-4)Gal(b1-4)Glc", "in_short": "as §1"}, "[35]": {"molecular_target": "Fuc(a1-2)[GalNAc(a1-3)]Gal(b1-3)GlcNAc", "in_short": "as §1"}, "[36]": {"molecular_target": "Fuc(a1-2)[GalNAc(a1-3)]Gal(b1-3)GlcNAc(b1-2)Man(a1-3)[Fuc(a1-2)[GalNAc(a1-3)]Gal(b1-3)GlcNAc(b1-2)Man(a1-6)]Man(b1-4)GlcNAc(b1-4)GlcNAc", "in_short": "as §1"}, "[37]": {"molecular_target": "Fuc(a1-2)[GalNAc(a1-3)]Gal(b1-3)GlcNAc(b1-2)Man(a1-3)[Fuc(a1-2)[GalNAc(a1-3)]Gal(b1-3)GlcNAc(b1-2)Man(a1-6)]Man(b1-4)GlcNAc(b1-4)[Fuc(a1-6)]GlcNAc", "in_short": "as §1"}, "[38]": {"molecular_target": "Fuc(a1-2)[GalNAc(a1-3)]Gal(b1-3)GlcNAc(b1-3)GalNAc", "in_short": "as §1"}}, "note": "The list shows a part of the results."}
{"binder": "B1", "values": [{"measurement": "glycan array binding signal (z-score)", "setting": "[1]", "result": -0.369}, {"measurement": "glycan array binding signal (z-score)", "setting": "[2]", "result": -0.323}, {"measurement": "glycan array binding signal (z-score)", "setting": "[3]", "result": -0.429}, {"measurement": "glycan array binding signal (z-score)", "setting": "[4]", "result": -0.35}, {"measurement": "glycan array binding signal (z-score)", "setting": "[5]", "result": -0.343}, {"measurement": "glycan array binding signal (z-score)", "setting": "[6]", "result": -0.455}, {"measurement": "glycan array binding signal (z-score)", "setting": "[7]", "result": -0.453}, {"measurement": "glycan array binding signal (z-score)", "setting": "[8]", "result": -0.408}, {"measurement": "glycan array binding signal (z-score)", "setting": "[9]", "result": 0.194}, {"measurement": "glycan array binding signal (z-score)", "setting": "[10]", "result": -0.449}, {"measurement": "glycan array binding signal (z-score)", "setting": "[11]", "result": -0.428}, {"measurement": "glycan array binding signal (z-score)", "setting": "[12]", "result": -0.429}, {"measurement": "glycan array binding signal (z-score)", "setting": "[13]", "result": -0.443}, {"measurement": "glycan array binding signal (z-score)", "setting": "[14]", "result": -0.453}, {"measurement": "glycan array binding signal (z-score)", "setting": "[15]", "result": -0.102}, {"measurement": "glycan array binding signal (z-score)", "setting": "[16]", "result": -0.416}, {"measurement": "glycan array binding signal (z-score)", "setting": "[17]", "result": -0.434}, {"measurement": "glycan array binding signal (z-score)", "setting": "[18]", "result": -0.456}, {"measurement": "glycan array binding signal (z-score)", "setting": "[19]", "result": 2.81}, {"measurement": "glycan array binding signal (z-score)", "setting": "[20]", "result": -0.171}, {"measurement": "glycan array binding signal (z-score)", "setting": "[21]", "result": -0.43}, {"measurement": "glycan array binding signal (z-score)", "setting": "[22]", "result": -0.426}, {"measurement": "glycan array binding signal (z-score)", "setting": "[23]", "result": -0.419}, {"measurement": "glycan array binding signal (z-score)", "setting": "[24]", "result": -0.307}, {"measurement": "glycan array binding signal (z-score)", "setting": "[25]", "result": -0.441}, {"measurement": "glycan array binding signal (z-score)", "setting": "[26]", "result": -0.357}, {"measurement": "glycan array binding signal (z-score)", "setting": "[27]", "result": -0.449}, {"measurement": "glycan array binding signal (z-score)", "setting": "[28]", "result": -0.44}, {"measurement": "glycan array binding signal (z-score)", "setting": "[29]", "result": -0.428}, {"measurement": "glycan array binding signal (z-score)", "setting": "[30]", "result": -0.432}, {"measurement": "glycan array binding signal (z-score)", "setting": "[31]", "result": -0.423}, {"measurement": "glycan array binding signal (z-score)", "setting": "[32]", "result": 2.69}, {"measurement": "glycan array binding signal (z-score)", "setting": "[33]", "result": 3.71}, {"measurement": "glycan array binding signal (z-score)", "setting": "[34]", "result": 2.5}, {"measurement": "glycan array binding signal (z-score)", "setting": "[35]", "result": 2.96}, {"measurement": "glycan array binding signal (z-score)", "setting": "[36]", "result": 2.42}, {"measurement": "glycan array binding signal (z-score)", "setting": "[37]", "result": 0.785}, {"measurement": "glycan array binding signal (z-score)", "setting": "[38]", "result": 1.43}]}
